Experimental data from patent US12331051B2 (priority 2021, dated 2025).

Target: 5-HT2C receptor (Homo sapiens, UniProt P28335)
Details: FIG. 15, FIG. 16A/B

CCN(CC)C(=O)[C@@H]1C=C2c3cccc4[nH]c(Br)c(c34)C[C@H]2N(C)C1 [E559, (5R, 8R)-2-Bromo-9,10-didehydro-N,N-diethyl-6-methylergoline-8-carboxamide hemi-D-tartrate]
functional activity at 5-HT2C: exhibits partial agonism at 5-HT2C
